Measurements from PMC6919601, “Identification of Plasmodium dipeptidyl aminopeptidase allosteric inhibitors by high throughput screening” (PLoS ONE, 2019).
Among all 110,000 compounds or so, about 230 (0.21%) showed an effect of 50% or more. The list shows a part of the results.

target: DPAP1 (Plasmodium falciparum, UniProt Q8IIJ9); assay: primary screen, percent inhibition; read by cleavage of a fluorogenic dipeptide substrate; higher = more effect of the substance; design: species or system P. falciparum D10 trophozoite lysates; single well
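Also: 30 min substrate incubation versus DMSO and 10 µM JCP410 controls.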

DPAP1, sequence (Q8IIJ9 whole entry, looked up): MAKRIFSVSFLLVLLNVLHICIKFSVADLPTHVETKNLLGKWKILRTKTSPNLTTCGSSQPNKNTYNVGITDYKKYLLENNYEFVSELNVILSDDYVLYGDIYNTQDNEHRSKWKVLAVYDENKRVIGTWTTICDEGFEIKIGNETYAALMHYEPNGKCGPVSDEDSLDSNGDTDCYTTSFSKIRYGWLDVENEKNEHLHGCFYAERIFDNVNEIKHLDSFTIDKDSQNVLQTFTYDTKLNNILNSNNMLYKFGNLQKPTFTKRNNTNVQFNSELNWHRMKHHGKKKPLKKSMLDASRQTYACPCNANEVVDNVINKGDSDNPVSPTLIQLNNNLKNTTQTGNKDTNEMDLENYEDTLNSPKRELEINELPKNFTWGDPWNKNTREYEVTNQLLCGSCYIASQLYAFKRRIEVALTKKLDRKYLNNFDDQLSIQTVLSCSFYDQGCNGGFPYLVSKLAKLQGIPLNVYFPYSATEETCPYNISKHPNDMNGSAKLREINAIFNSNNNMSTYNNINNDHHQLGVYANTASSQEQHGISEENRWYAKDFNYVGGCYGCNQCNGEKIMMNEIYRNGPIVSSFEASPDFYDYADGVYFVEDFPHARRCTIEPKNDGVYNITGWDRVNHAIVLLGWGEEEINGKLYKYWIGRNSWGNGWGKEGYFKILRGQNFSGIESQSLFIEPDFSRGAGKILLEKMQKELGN

Question: For COc1cc(OC)cc(C(=O)Nc2ccc(Cc3ccncc3)cc2)c1, which “% Inhibition @ 10 uM” value is on record?
Answer: -0.303%

Question: With CC1CC(C)CN(C(=O)c2nn(C)c3c2CSc2ccccc2-3)C1 (stereo not drawn) as the compound, how does the “% Inhibition @ 10 uM” value read?
Answer: 0.00665%

Question: How did the “% Inhibition @ 10 uM” value turn out when CCOc1ccc(Oc2cc(N)cc(Oc3cccnc3)c2)cc1 was run?
Answer: -7.99%

Question: For Cc1ccccc1OCC(=O)NC1CCCCCC1, which “% Inhibition @ 10 uM” value is on record?
Answer: -1.61%

Question: N#Cc1c(N)n(-c2ccc(Cl)cc2)c2nc3ccccc3nc12 was tested. Which “% Inhibition @ 10 uM” value did it give?
Answer: -5.5%

Question: For CN1CCN(C(=O)c2ccc(CSc3nc4ccncc4n3Cc3ccc(F)cc3)cc2)CC1, which “% Inhibition @ 10 uM” value is on record?
Answer: 4.22%

Question: Cc1cc(C)c2c(n1)nn1c(C)c(CCC(=O)NCCCc3ccccc3)c(C)nc21 was tested. Which “% Inhibition @ 10 uM” value did it give?
Answer: 0.953%

Question: With CCOC(=O)c1c(C)nc(C)c(C(=O)OCC)c1-c1ccccc1 as the compound, how does the “% Inhibition @ 10 uM” value read?
Answer: 1.57%

Question: Which “% Inhibition @ 10 uM” value does the source give for CC(=O)Nc1ccc(C(=O)Nc2cccc([N+](=O)[O-])c2)cc1 here?
Answer: -5.57%

Question: COc1ccc(N(CC(=O)Nc2cccc(C)c2)S(=O)(=O)c2ccccc2)cc1OC was tested. Which “% Inhibition @ 10 uM” value did it give?
Answer: -12.7%

Question: With CC(C)CNc1nc(NC(C)(C)C)nc(Oc2ccc(=O)n(C)n2)n1 as the compound, how does the “% Inhibition @ 10 uM” value read?
Answer: -8.78%

Question: With COC(=O)C1=CN(C)C=C(C(=O)OC)C1c1cccc(C)c1 as the compound, how does the “% Inhibition @ 10 uM” value read?
Answer: -3.21%

Question: With Cn1c2ccccc2c2cnn(CC(=O)NCCCc3ccccc3)c(=O)c21 as the compound, how does the “% Inhibition @ 10 uM” value read?
Answer: -3.9%

Question: How did the “% Inhibition @ 10 uM” value turn out when Cc1sc2nc(SCC(=O)NCCOCCO)n(C)c(=O)c2c1C was run?
Answer: -5.34%

Question: For O=C(CSc1nnc(-c2cccnc2)o1)c1cc2ccccc2oc1=O, which “% Inhibition @ 10 uM” value is on record?
Answer: -2.63%

Question: How did the “% Inhibition @ 10 uM” value turn out when CCN(CC)c1ccc(NC(=O)C2Cc3ccccc3CN2S(=O)(=O)c2cccs2)cc1 (stereo not drawn) was run?
Answer: 0.755%

Question: How did the “% Inhibition @ 10 uM” value turn out when CC(=O)C1=C(C)N=C(S)NC1c1cc([N+](=O)[O-])ccc1O (stereo not drawn) was run?
Answer: 1.66%

Question: How did the “% Inhibition @ 10 uM” value turn out when Cc1nc(Cl)c2cc(-c3ccccc3)sc2n1 was run?
Answer: -10.3%

Question: For CCN(CC)CCN(C)C(C)CCc1ccccc1 (stereo not drawn), which “% Inhibition @ 10 uM” value is on record?
Answer: 1.83%

Question: Which “% Inhibition @ 10 uM” value does the source give for NC(=O)c1c(NC(=O)c2ccc(F)cc2)sc2c1CCCC2 here?
Answer: -4.58%

Question: With C#CC(C)(O)CCc1c(C)cc(OC)c(C)c1C (stereo not drawn) as the compound, how does the “% Inhibition @ 10 uM” value read?
Answer: 0.878%

Question: With CC(C)(C)NC(=O)c1oc2ccccc2c1NC(=O)C1CCCC1 as the compound, how does the “% Inhibition @ 10 uM” value read?
Answer: -4.8%

Question: With N#CC1=C(N)Oc2[nH]nc(-c3ccccc3)c2C1c1ccc(F)cc1 (stereo not drawn) as the compound, how does the “% Inhibition @ 10 uM” value read?
Answer: 2.46%

Question: With CCOC(=O)C1=C(N)OC2=C(C(=O)CCC2)C1c1cc(Cn2cnc3ccccc32)cs1 (stereo not drawn) as the compound, how does the “% Inhibition @ 10 uM” value read?
Answer: 4.57%

Question: COc1cc(-c2cc(NC(=O)Cn3ncc4c5ccccc5nc-4c3O)on2)cc(OC)c1OC was tested. Which “% Inhibition @ 10 uM” value did it give?
Answer: 1.66%

Question: Which “% Inhibition @ 10 uM” value does the source give for COC(=O)C1=C(C)N(CC(C)C)C(=O)/C1=C\c1cc(C)n(-c2ccc(OC)c(Cl)c2)c1C here?
Answer: -0.0626%

Question: With CSc1ncc(C(=O)NCc2cccc(C)c2)c(C)n1 as the compound, how does the “% Inhibition @ 10 uM” value read?
Answer: 3.85%
